Measurements from PubChem BioAssay AID1508642 (National Center for Advancing Translational Sciences (NCATS), 2021).
Screen size: about 43,000 compounds; about 200 (0.47%) were called active. Not shown: some 12% with an inconclusive outcome. The call rests on the fitted dose curve; in most records, active means well fitted cell-killing curve with a large enough effect; inconclusive means small, poorly fitted or top-dose-only effect, or effect the other way; inactive means flat fitted curve, though single readings scatter. This is one part of the list.

Assay: Cell viability qHTS assay in S16 Pmp22-F2sN cells; further: nearly all actives have a fitted effect of over 65% in size
Details: S16 Pmp22-F2sN Schwann cells viability, CellTiter-Glo, 24 h; series mostly up to 57.5 µM; activity change, negative = cytotoxicity: at the top concentration
Summary of the method: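 Viability was measured by CellTiter-Glo luminescence (15 min, room temperature). This followed 24 h at 37 °C of compound exposure (23 nL pin transfer) in S16 Pmp22-F2sN Schwann cells, 500-1,000 per well.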
On the % scale 0 is the no-effect control and ±100 the full control effect.

SMILES	activity change, negative = cytotoxicity
O=C(CN1C(=O)COc2ccccc21)NCCc1ccc(Cl)cc1	inactive: 0.248%
CCOc1ccc(N(CC)S(=O)(=O)N2CCCC(C(=O)Nc3ccc(C(C)=O)cc3)C2)cc1 (configuration not stated)	inactive: -3.2%
COc1cccc(C(=O)c2c(N)c(-c3nc(-c4ccccc4)cs3)c3ccccn23)c1	inactive: 2.13%
Cc1cccc(-n2c(=O)c3c(c4cc(C)ccc4n3C)n(CC(=O)N3CCCC3)c2=O)c1	inactive: -1.5%
Cc1ccc(NC(=O)Cn2c(=O)n(Cc3nc(C)no3)c(=O)c3ccccc32)c(Cl)c1	inactive: -23.2%
CCOc1ccccc1NC(=O)c1nc(SC(C)C)ncc1Cl	inactive: -9.08%
CCc1ccc(NC(=O)CN2C(=O)C(c3ccc(Cl)cc3)=NC23CCCCC3)cc1	inactive: -21.7%
Cc1c(CNC2CCCCC2)c(C(=O)O)c(C)n1Cc1cccc(Cl)c1	inactive: 22.4%
Cc1ccc(CNC(=O)c2ccc(NC(=O)N3CCSc4ncccc43)cc2)cc1	inactive: -1.61%
CCc1ccc(-n2c(=O)c3c4c(sc3n(CC(=O)N3CCCCC3CC)c2=O)CCC4)cc1 (configuration not stated)	inactive: -0.611%
Cc1cccc(/C=C(\C#N)c2nc3ccccc3c(=O)[nH]2)c1	inactive: 0.3%
COc1cc(NC(=O)CCS(=O)(=O)c2ccc3c(c2)CC(=O)N3C)cc(OC)c1OC	inactive: 19.7%
CCOc1ccc(-c2cc(C(=O)Oc3ccc(C#N)cc3)no2)cc1	inactive: 1.31%
COc1ccc(/C=C/c2nc(C#N)c(NCc3ccc(F)cc3)o2)cc1OC	inactive: 1.5%
Cc1ccccc1Nc1c(-c2cc(Br)ccc2F)nc2ccccn12	inactive: -1.55%
CCOC(=O)C1CCC(CN(Cc2ccccc2)S(=O)(=O)c2ccc(Br)cc2)CC1 (configuration not stated)	inactive: -17.4%
CCCN1Cc2cccc(C(=O)Nc3ccc(C(C)=O)cc3)c2C1=O	inactive: -19.4%
COc1ccc(N2CCN(CCCNC(=O)c3cc(Nc4ccc(OC)cc4OC)nc4ccccc34)CC2)cc1	inactive: -14.5%
Fc1ccccc1Cc1cn2cc(-c3ccc(Cl)cc3)nc2s1	inactive: 14.1%
COc1ccccc1Cn1c(CNS(=O)(=O)c2ccc(C(C)C)cc2)nc2cccnc21	inactive: -6.71%
CCC(=O)N1CCCc2cc(S(=O)(=O)N3CCC(C(=O)NC4CCCCC4)CC3)ccc21	inactive: -2.71%
COc1ccc(CNC(=O)c2nc(SCc3ccccc3F)ncc2Cl)cc1	inactive: -1.76%
COc1ccccc1NC(=O)c1oc2ccccc2c1NC(=O)c1cccc(OC)c1OC	inactive: -22.3%
CCCS(=O)(=O)N1CC(=O)N(c2cccc(Cl)c2C)C(C)(C(=O)NC2CCCC2)C1 (configuration not stated)	inactive: 12.1%

SMILES	activity change, negative = cytotoxicity
Cc1cc(-c2ccc(C)c(S(=O)(=O)NCc3cccc(Br)c3)c2)on1	inactive: -4.97%
Cc1cc(C)cc(OCC(=O)N(Cc2cccs2)c2ccc(Cl)cc2)c1	inactive: -10.5%
CCC(Oc1ccccc1)C(=O)Nc1cc(-c2cccc(C)c2)nn1-c1ccccc1 (configuration not stated)	inactive: 18.8%
COc1ccc(-n2c(C)c(C(C)=O)c3cc(OC(=O)COc4ccccc4)ccc32)cc1	inactive: -5.97%
COc1ccc(-n2nc(C(=O)N3CCN(c4cccc(C)c4C)CC3)c3c4ccccc4n(C)c3c2=O)cc1Cl	inactive: -0.0531%
Cc1ccc(CNC(=O)Cc2c(C)c3c(cc(C)c4c(C)coc43)oc2=O)cc1	inactive: -3.47%
COc1cccc(CNC(=O)Cn2ncn3nc(-c4cccs4)cc3c2=O)c1OC	inactive: -26.9%
Fc1ccc(-c2nn(-c3ccccc3Cl)c3c2cnc2ccccc23)cc1	inactive: -0.621%
Cc1ccc2onc(CC(=O)N3CCN(c4cc(Cl)ccc4C)CC3)c2c1	inactive: 0.945%
Cc1ccc(-n2ncc(C(=O)NCCN3CCCC3)c2C2CCN(C(=O)OC(C)(C)C)CC2)cc1C	inactive: -0.274%
CCc1ccccc1-n1c(C)nc2cc(C(=O)NCCc3ccc(Cl)cc3)ccc21	inactive: -10.2%
Cc1ccc(CNC(=O)C2CCN(S(=O)(=O)c3cn(C)cn3)CC2)cc1	inactive: -25.6%
CC(C)OCCCNC(=O)CN1C(=O)COc2ccc(S(=O)(=O)N3CCCCCC3)cc21	inactive: 15.6%
COCCCNC(=O)CCc1c(C)nc2nc(-c3cc(OC)cc(OC)c3)nn2c1C	inactive: 14.7%
CC(C)N(Cc1ccccc1)S(=O)(=O)c1ccc(-c2cc(C(F)(F)F)on2)s1	inactive: 13.4%
COC(=O)c1ccc2c(c1)N(Cc1ccc(Cl)cc1)C(=O)c1ccccc1S2	inactive: 6.05%
Cc1nc2nc(SCC(=O)NC3CCCCC3)nn2c(C)c1Cc1ccccc1Cl	inactive: 18.5%
COCCNc1nc2c(c(=O)n(Cc3cccc(Br)c3)c(=O)n2C)n1C	inactive: 3.42%
CC(C)c1ccc(Nc2ncnc3onc(-c4ccc(F)cc4)c23)cc1	inactive: -1.14%
Cc1cc(Cl)ccc1NC(=O)Cn1nnc2sc(-c3ccccc3)cc2c1=O	inactive: 3.84%
COc1ccc(OC)c2sc(N3CCN(C(=O)CCS(=O)(=O)c4ccc(F)cc4)CC3)nc12	inactive: -19%
CCCn1c2ccccc2c2cnn(CC(=O)N3CCCC(C)C3)c(=O)c21 (configuration not stated)	inactive: -2.91%
COc1cccc(N2CCN(C(=O)c3cc4c(=O)oc5ccc(C)cc5c4s3)CC2)c1	inactive: 0.411%
